Read-outs that look alike come from different tables or passages of the source. Results are given in words; binding and its absence hold for the method and conditions named. For some assays here: Binding seen in cells or lysates may run through a third protein. Some entries that bind do so weakly or less than the wild type. For some assays here: Where a sequence is shown, tags or fusion partners need not be part of it.

The chains behind the UniProt entries cited, without tags or fusion partners.
UniProt P19524: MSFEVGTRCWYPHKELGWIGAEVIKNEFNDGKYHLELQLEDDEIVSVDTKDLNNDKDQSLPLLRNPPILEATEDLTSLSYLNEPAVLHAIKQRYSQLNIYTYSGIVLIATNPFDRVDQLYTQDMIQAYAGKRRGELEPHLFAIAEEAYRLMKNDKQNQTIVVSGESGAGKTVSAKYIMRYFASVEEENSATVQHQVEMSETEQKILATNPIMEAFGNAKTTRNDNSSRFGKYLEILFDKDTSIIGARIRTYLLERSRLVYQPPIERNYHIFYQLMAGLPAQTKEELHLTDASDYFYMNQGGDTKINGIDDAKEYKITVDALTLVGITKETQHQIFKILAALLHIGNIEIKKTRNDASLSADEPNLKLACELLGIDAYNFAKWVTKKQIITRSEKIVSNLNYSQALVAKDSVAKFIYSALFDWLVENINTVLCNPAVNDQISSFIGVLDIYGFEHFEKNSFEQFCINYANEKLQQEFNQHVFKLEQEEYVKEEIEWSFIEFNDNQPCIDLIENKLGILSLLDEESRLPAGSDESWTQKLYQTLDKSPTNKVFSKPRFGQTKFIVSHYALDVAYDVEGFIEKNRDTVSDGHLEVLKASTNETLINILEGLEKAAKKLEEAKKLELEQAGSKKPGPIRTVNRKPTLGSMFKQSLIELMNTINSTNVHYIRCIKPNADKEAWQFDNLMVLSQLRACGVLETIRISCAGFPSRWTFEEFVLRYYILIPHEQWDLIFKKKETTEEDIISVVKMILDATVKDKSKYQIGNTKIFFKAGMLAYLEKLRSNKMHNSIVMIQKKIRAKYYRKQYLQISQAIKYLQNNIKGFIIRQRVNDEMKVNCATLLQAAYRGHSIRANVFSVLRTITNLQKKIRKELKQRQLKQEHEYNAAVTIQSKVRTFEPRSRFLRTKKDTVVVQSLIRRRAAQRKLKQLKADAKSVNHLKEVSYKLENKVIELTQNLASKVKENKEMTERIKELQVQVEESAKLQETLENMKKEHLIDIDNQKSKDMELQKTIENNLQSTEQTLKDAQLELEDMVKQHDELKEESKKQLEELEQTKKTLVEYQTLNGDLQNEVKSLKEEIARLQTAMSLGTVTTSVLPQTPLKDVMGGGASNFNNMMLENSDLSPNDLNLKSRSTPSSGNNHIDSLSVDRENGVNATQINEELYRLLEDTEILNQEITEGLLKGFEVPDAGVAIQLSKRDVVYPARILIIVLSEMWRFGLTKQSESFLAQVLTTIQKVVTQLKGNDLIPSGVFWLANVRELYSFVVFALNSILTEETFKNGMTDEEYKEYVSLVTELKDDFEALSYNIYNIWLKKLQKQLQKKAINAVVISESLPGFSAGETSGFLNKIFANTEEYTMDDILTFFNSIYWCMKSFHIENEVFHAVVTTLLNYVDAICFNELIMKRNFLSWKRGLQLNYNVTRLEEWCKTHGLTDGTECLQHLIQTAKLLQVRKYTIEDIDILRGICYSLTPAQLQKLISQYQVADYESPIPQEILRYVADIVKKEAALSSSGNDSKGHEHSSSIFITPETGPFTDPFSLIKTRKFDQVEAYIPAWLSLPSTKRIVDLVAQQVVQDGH

In assay [1] the target is TAP-Spa2 (S. cerevisiae) (UniProt P23201). Description: co-IP; yeast cell extract of cells in cytokinesis (90 min after G1 release, YPD, 24°C; control cells of Fig 4C: 75 min, YPGal, 37°C); TAP-Spa2 on IgG beads; immunoblot. In general terms: In western blotting, separated proteins are transferred to a membrane and probed.
Assay [2] shares this target. Nature of the assay: co-IP; yeast cell extract of Hof1-depleted cells (hof1-td, YPGal, 37°C, 75 min after G1 release); TAP-Spa2 on IgG beads; immunoblot.
For assay [3] the target is unchanged. Nature of the assay: co-IP; extract of asynchronous diploid cells TAP-SPA2/SPA2-5FLAG, YPD, 24°C; TAP-Spa2 on IgG beads; immunoblot.
Assay [4] concerns the target Spa2-1-145 (S. cerevisiae) (UniProt P23201). Nature of the assay: two-hybrid; vectors pGADT7 and pGBKT7; growth at 30°C on SC medium lacking leucine, tryptophan and histidine (selective), 3-4 days.
Assay [5] has as its target Strep-tag-Spa2-1-552 (S. cerevisiae) (UniProt P23201). Nature of the assay: pull-down; pairs of E. coli cultures mixed, one cell extract; Strep-tagged protein isolated on Strep-Tactin Superflow resin, eluted with 2.5 mM d-desthiobiotin; immunoblot with anti-Strep and anti-His.
In assay [6] the target is Spa2-421-552 (S. cerevisiae) (UniProt P23201). Description: two-hybrid; vectors pGADT7 and pGBKT7; growth at 30°C on SC medium lacking leucine, tryptophan and histidine (selective), 3-4 days.
Assay [7] deals with Spa2-1-145 (S. cerevisiae) (UniProt P23201). The assay is described as above. This is another data set of the same source.
Assay [8] addresses T1, Strep-tag-Chs2-215-629 (S. cerevisiae) (UniProt P14180).
T1 sequence: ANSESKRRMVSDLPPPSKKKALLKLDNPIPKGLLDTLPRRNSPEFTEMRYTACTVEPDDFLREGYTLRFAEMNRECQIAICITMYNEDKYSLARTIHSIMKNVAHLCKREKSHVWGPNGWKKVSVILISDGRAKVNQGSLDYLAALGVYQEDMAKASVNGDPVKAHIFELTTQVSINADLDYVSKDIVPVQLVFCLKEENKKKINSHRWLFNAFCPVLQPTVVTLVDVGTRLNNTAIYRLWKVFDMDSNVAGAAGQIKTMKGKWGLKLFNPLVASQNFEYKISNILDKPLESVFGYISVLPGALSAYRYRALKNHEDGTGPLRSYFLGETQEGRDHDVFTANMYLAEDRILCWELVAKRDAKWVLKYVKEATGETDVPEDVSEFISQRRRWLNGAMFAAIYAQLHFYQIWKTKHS
Description: pull-down; pairs of E. coli cultures mixed, one cell extract; Strep-tagged protein isolated on Strep-Tactin Superflow resin, eluted with 2.5 mM d-desthiobiotin; immunoblot with anti-Strep and anti-His.

Assay [9] deals with T2, Spa2-553-1466 (S. cerevisiae) (UniProt P23201).
T2 sequence: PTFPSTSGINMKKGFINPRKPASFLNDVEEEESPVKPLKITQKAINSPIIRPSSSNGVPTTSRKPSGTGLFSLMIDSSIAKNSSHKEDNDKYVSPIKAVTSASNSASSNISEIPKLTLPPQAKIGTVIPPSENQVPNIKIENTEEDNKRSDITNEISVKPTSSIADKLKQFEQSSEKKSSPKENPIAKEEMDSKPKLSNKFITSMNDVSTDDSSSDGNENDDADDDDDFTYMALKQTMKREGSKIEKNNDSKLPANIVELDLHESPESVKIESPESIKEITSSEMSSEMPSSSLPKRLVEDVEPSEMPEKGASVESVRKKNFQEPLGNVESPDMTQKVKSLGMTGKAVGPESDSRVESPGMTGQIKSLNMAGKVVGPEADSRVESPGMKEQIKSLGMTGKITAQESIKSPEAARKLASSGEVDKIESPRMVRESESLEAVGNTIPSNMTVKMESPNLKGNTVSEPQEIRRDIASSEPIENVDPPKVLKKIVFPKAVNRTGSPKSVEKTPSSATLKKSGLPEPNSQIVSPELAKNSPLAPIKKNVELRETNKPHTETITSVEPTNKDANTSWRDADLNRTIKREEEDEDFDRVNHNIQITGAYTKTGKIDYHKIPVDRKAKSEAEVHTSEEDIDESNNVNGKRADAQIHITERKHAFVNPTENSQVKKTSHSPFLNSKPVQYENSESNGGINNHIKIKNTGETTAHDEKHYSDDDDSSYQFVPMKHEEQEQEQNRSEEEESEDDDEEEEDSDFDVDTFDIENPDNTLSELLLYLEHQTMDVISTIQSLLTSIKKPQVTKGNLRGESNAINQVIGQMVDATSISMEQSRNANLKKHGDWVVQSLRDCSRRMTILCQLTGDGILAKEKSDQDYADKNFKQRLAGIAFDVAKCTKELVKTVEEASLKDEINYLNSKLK
Description: two-hybrid; vectors pGADT7 and pGBKT7; growth at 30°C on SC medium lacking leucine, tryptophan and histidine (selective), 3-4 days.

As to Myo2 (from UniProt P19524 1-1574), the binding result in assay [1] and in [2] was “binds” throughout.
Take TAP-Spa2 (from UniProt P23201 1-1466): the binding result in [3] is on record as “binds”.
Take “Spa2-421-552 (from UniProt P23201 421-552) (domain or fragment)”: the binding entry in assay [4] is recorded as “binds”.

B1: 6His-Cyk3-475-885 (domain or fragment, UniProt Q07533 475-885)
chain: ARYSTVLEKLRGIYIFCTEMFALTDDNGTSDFSAEPQNLEKILYRKHCTPYELTWLFKKLANSLGITCEIVIGFLKTPSAINWEFKYNHCWLRILVNKEWRFIDVILGNVTNPIHEFVNNRKIKKAENSYFLMAPLEMIYTHIPPREFEQHIVPSIDQLSALYLPLVFPSFFKNELKLYKFSTALSFLEDSEIYECSLEIPNDVEVFASVVIPTDNEEASSAYRNMELALTQIKKQKAESGRRIALIKAVLPPNVNKGSLYIHSGVRGTQTSIANIHPLSMMVPLTHKGSNMKYEFVIKIPSESIQKIELYIVEPQSRYLFVGNEYSFEVIQSPSDGIVYSSDEGPNQNRKQPMAIKSPSGRVHELVKSDPHFPYGTWKGSIKIKEPGVWSALVIADSGIGWSVFAEWLCV
As to B1, the binding result in assay [5] was “binds”.

B2: Chs2-215-629 (two-hybrid) (domain or fragment, UniProt P14180 215-629)
chain: T1 sequence
Regarding B2, the binding result in assay [6] and in assay [7] was “binds” throughout.

B3: 6His-tagged-Inn1 (natural protein, S. cerevisiae, UniProt P53901 1-409, looked up)
chain: MSEEVWNGNQGILSVYVSKARDLPNLNKLDKQNVMLRLRIAHMTRASNTLHRAGQNPVFHYLEKFDITPEIKPLMYVEVYCDRRKKSPLPIGRCEIDLLNAIRADPKEGYCTWYELKRSGDEFAGTIFIELTFTPKVPRLNRDDLNKEMDRLDSSMAMRPIPPLPTESEYDYVHGSTMRQITPQCVSTSHEDKDEGQPYRNGNVFSMSSKSDTAVLANSNDPIILPPTFSASMGTTSTLETNDTAISNTSNTKFHFANLRKLKEKINIFKNPDSSTNNCQNESNKVDIEALQKAIGVTSLSYDEDDDDDDENDAFYSSSHRVSHNYNQPPLPPIPTRDDMSNYSSSRNTPLVRRDRPSRLDSSSPNSHPHPSGLNSPKLPPLPTTSNSNFNSRKNSMSPTRKRPPPRLS
notes: Inn1, S. cerevisiae; also called 6His-Inn1; source: E. coli Rosetta, in cell extract
With B3, in assay [8], the binding result is on record as “binds”.

B4: Chs2 (protein, UniProt P14180 1-963)
chain: MTRNPFMVEPSNGSPNRRGASNLSKFYANANSNSRWANPSEESLEDSYDQSNVFQGLPASPSRAALRYSPDRRHRTQFYRDSAHNSPVAPNRYAANLQESPKRAGEAVIHLSEGSNLYPRDNADLPVDPYHLSPQQQPSNNLFGSGRLYSQSSKYTMSTTSTTAPSLAEADDEKEKYLTSTTSYDDQSTIFSADTFNETKFELNHPTRQQYVRRANSESKRRMVSDLPPPSKKKALLKLDNPIPKGLLDTLPRRNSPEFTEMRYTACTVEPDDFLREGYTLRFAEMNRECQIAICITMYNEDKYSLARTIHSIMKNVAHLCKREKSHVWGPNGWKKVSVILISDGRAKVNQGSLDYLAALGVYQEDMAKASVNGDPVKAHIFELTTQVSINADLDYVSKDIVPVQLVFCLKEENKKKINSHRWLFNAFCPVLQPTVVTLVDVGTRLNNTAIYRLWKVFDMDSNVAGAAGQIKTMKGKWGLKLFNPLVASQNFEYKISNILDKPLESVFGYISVLPGALSAYRYRALKNHEDGTGPLRSYFLGETQEGRDHDVFTANMYLAEDRILCWELVAKRDAKWVLKYVKEATGETDVPEDVSEFISQRRRWLNGAMFAAIYAQLHFYQIWKTKHSVVRKFFLHVEFLYQFIQMLFSWFSIANFVLTFYYLAGSMNLVIKHGEALFIFFKYLIFCDLASLFIISMGNRPQGAKHLFITSMVILSICATYSLICGFVFAFKSLASGTESHKIFVDIVISLLSTYGLYFFSSLMYLDPWHMFTSSIQYFLTLPAFTCTLQIFAFCNTHDVSWGTKGSTQESKQLSKAIVVQGPDGKQIVETDWPQEVDKKFLEIKSRLKEPEFEESSGNEKQSKNDYYRDIRTRIVMIWMLSNLILIMSIIQVFTPQDTDNGYLIFILWSVAALAAFRVVGSMAFLFMKYLRIIVSYRNKVEGSGSWEVSKLDLPNVFHKKG
Turning to B4, the binding result in assay [1] and in [2] was “binds” in each case.

B5: Hof1 (two-hybrid construct of Fig 5E) (protein, UniProt Q05080 1-669)
chain: MSYSYEACFWDPNDNGVNILLGHISQGIRSCDSMILFFKQRSELEKDYARRLGAITGKLDKDIGTNMDYGKLNETFNVVLSVEKARAQSHSKQSEILFRQIYTDTKAFAANLQARYTTLSGKIERLRMDKFNKKKGCEVLQKKLQDAQIRFRDLQLNENNMIGAKRVEHNKRELLKWESNSQEYKVQLDVLKQEYKASQKFWIHEWAQLSCELQEMENARISFLQSKLQQFATSSMETYILEQTKMDMLTNHLNSFTAADEISTFSKENGTGRLKHKTSKGDMNSSANWAQMSSISTTSKKTESYMDNIRKLSSQLKETENKRKLASIDKYEKPLPSPEVTMATQFRNSTPVIRNETKVVANPTLSLRSSPVQLQSNVDDSVLRQKPDKPRPIVGEEQLKPDEDSKNPDEKGLMVHKRNQSLSSPSESSSSNPTDFSHIKKRQSMESMTTSVSSMANSIDDSQRFAKSWNSSNRKRKSMSHLQVPSSASSRSDDGGRTPNSAHNLNEDDYNTRRDTSTSTILFKPPVAVRGTSRGHTHRQSMIMQDSSNPIEDALYEMERIQSSSKPGTKTGNIMDERGVVRDRGITVTLPIVTSEGFPVIEYAKAMYPLIGNEAPGLANFHKGDYLLITEIVNKDWYKGEVYDNDRIDRNHRIGLIPYNFIQLLHQGL
With B5, in assay [9], the binding entry is given as “binds”.

These data come from PMC5895073, “Cell polarity protein Spa2 coordinates Chs2 incorporation at the division site in budding yeast” (PLoS Genetics, 2018).
